Experimental data as given in PMC4336329 (PLoS ONE, 2015).
Among all 310,000 compounds or so, about 2,200 (0.71%) showed an effect of 50% or more. Effects have a minus sign here. Some of the results follow.

These compounds were tested against human ether-à-go-go-related gene (hERG) potassium channel (human, UniProt Q12809) (assay: primary screen, population patch clamp on CHO cells stably expressing hERG).
Sequence of human ether-à-go-go-related gene (hERG) potassium channel (Q12809 whole entry, looked up): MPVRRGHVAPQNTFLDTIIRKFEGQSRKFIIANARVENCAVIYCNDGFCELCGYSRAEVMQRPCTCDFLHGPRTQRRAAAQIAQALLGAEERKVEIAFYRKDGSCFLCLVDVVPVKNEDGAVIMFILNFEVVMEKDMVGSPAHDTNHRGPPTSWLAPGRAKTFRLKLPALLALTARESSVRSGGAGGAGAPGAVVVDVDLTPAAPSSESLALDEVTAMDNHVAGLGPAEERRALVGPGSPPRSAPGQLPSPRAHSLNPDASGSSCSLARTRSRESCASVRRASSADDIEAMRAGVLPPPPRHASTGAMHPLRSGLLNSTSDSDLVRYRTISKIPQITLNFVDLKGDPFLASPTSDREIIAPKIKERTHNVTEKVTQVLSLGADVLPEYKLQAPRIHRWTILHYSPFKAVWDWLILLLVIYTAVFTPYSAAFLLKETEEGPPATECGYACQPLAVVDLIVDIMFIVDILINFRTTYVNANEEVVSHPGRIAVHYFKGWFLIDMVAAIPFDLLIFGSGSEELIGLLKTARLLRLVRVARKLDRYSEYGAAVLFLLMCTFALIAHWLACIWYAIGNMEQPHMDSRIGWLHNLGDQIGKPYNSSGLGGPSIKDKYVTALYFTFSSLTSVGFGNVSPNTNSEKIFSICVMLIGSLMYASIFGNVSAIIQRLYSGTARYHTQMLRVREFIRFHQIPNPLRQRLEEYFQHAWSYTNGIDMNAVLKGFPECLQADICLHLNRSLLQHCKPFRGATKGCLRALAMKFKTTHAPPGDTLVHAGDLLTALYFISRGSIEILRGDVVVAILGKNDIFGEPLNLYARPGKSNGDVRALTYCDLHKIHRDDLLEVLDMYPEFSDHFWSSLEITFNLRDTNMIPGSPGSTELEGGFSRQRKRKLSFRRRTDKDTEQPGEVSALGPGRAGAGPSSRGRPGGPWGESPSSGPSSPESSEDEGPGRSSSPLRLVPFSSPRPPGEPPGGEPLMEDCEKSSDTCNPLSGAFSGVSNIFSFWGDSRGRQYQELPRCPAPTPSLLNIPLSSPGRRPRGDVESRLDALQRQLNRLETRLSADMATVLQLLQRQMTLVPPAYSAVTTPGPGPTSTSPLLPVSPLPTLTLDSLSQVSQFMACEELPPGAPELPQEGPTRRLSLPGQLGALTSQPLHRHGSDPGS

Row | Compound | hERG current change (%, negative = inhibition) at 1uM [%]
1 | COc1ccc(NC(=O)CSc2nnc(N)s2)c([N+](=O)[O-])c1 | 10.5
2 | CCn1c(SCC(=O)NC(=O)Nc2ccc3c(c2)OCCO3)nnc1-c1cccs1 | 4.07
3 | Cc1cccc(NCC(=O)N/N=C\c2ccccn2)c1 | 13.6
4 | Cc1ccc(S(=O)(=O)N(C)C(=O)NC(=O)NS(=O)(=O)c2ccccc2)cc1 | 6.01
5 | CC(=O)Nc1ccc(C(=O)CSc2nccc(=O)[nH]2)cc1 | 20.4
6 | COc1ccc(S(=O)(=O)Nc2ccc(N(C)C(C)=O)cc2)cc1 | 17.4
7 | CCN(CC)CCNC(=O)C12CC3CC(C)(CC(C)(C3)C1)C2.Cl | 3.57
8 | O=C(C1COc2ccccc2O1)N1CCN(c2ccccn2)CC1 (stereo not shown) | 1.96
9 | CC1=C(C)C(C)=C(C#N)C(=C(C#N)C#N)N1 | 13.1
10 | COc1cccc(/C=N/NC(=O)c2c(C)nc3ccc(Br)cn23)c1O | 12.5
11 | CSCC(=O)N1CCCC(CO)(Cc2ccccc2C)C1 (stereo not shown) | 7.65
12 | S=C1N(c2ccccc2)C(c2cccc3ccccc23)N2CCCN12 (stereo not shown) | 0.859
13 | Cc1cc(OCC(=O)Nc2ccccc2N2CCCC2)ccc1C(C)C | 9.93
14 | CCCNC(=O)c1ccc(CN2CCc3ccccc3C2)cc1 | -5.55
15 | COc1cccc(CNn2cnnc2)c1OCc1ccccc1F | 2.06
16 | CC(=O)Nc1cccc(-c2cnc3ccccc3n2)c1 | 1.37
17 | C/C=C\C=C/C(=O)Nc1cccc(C2=NOC3(C2)C[C@H](C(N)=O)N(C(=O)CC)C3)c1 (stereo partly shown) | -8.7
18 | CC(C)CC(OC(=O)c1nsc(Cl)c1Cl)C(=O)NCC1CCCO1 (stereo not shown) | 7.21
19 | COc1cccc(CNC(=O)[C@@H](C)N2C(=O)N3CCc4c([nH]c5ccc(OC)cc45)C3(C)C2=O)c1 (stereo partly shown) | 10.8
20 | COCC(C)n1c(C)cc(C(=O)COC(=O)c2n[nH]c3ccccc23)c1C (stereo not shown) | 10
21 | Cc1ccc2ncccc2c1NS(=O)(=O)c1ccccc1 | 10.3
22 | O=C(NCc1ccc(N2CCCC2=O)cc1)C1CCC(=O)N(Cc2ccccc2F)C1 (stereo not shown) | 1.12

Row | Compound | hERG current change (%, negative = inhibition) at 1uM [%]
23 | Cc1ccc(NC(=O)c2ccc3c(c2)S(=O)(=O)c2ccccc2C3=O)cc1S(=O)(=O)N1CCOCC1 | 9.15
24 | Cc1[nH]n(-c2nc(-c3cccc([N+](=O)[O-])c3)cs2)c(=O)c1C | 14.7
25 | O=C(Nc1ccc(Cl)c(Cl)c1)Nc1ccc([N+](=O)[O-])cn1 | 8.84
26 | Cc1cccc2c1CC(C)(C)NC2=C(C#N)C#N | 28.7
27 | Cc1ccc(OCCC(=O)OCc2csc(CC(=O)Nc3ccccc3C)n2)cc1 | 7.44
28 | Cc1ccc(S(=O)(=O)N2CCC(C(=O)OCC(=O)N3CCCC(C)C3)CC2)cc1C (stereo not shown) | -1.14
29 | COc1ccc(C(CCN)Cc2ccccc2)cc1 (stereo not shown) | 14.2
30 | CCc1ccc(NC(=O)COc2coc(CN3CCN(c4ccccc4)CC3)cc2=O)cc1 | 14.4
31 | COc1cccc(N2CCN(C(=O)c3cc4c(s3)-c3ccccc3OC4)CC2)c1 | -13.3
32 | O=C(NC1=NCCS1)c1cc(-c2ccc(F)cc2)nc2ccccc12 | 8.29
33 | Cc1nn2c(Nc3ccc(F)cc3)c3c(nc2c1-c1ccccc1)CCC3 | 13.8
34 | Cc1ccccc1NC(=S)NC(=O)c1cncc(Br)c1 | 2.94
35 | CC(/C=C/c1ccccc1)=N\NC(=O)c1ccc(Br)cc1 | 7.71
36 | c1ccn2cc(CSc3nnc4ccccn34)nc2c1 | 13.6
37 | Nc1ncnc(Oc2cccc3cccnc23)c1[N+](=O)[O-] | 19.3
38 | Cc1ccc(-n2c(=O)cc(N3CC(C)CC(C)C3)[nH]c2=O)cc1 (stereo not shown) | 20.8
39 | CCS(=O)(=O)N1CCN(c2ccc(S(=O)(=O)N3CCOCC3)cc2)CC1 | 6.36
40 | CN(Cc1nc(-c2ccc(Cl)cc2)no1)C(=O)CCN1C(=O)[C@H]2CC=CC[C@H]2C1=O | 1.2
41 | COc1ccc(-n2c(SCC(=O)NC3CC3)nc3ccccc3c2=O)cc1OC | 13.2
42 | CCc1nnc(NC(=O)c2cnccn2)s1 | 9.02
43 | COc1ccc(C2CC(c3ccccc3)=NN2C(=O)CCCC(=O)O)cc1 (stereo not shown) | 19.9
44 | C/C(CC(=O)Nc1ccccc1-c1ccccc1)=N\NC(=O)COc1ccc(C)cc1Br | 5.83

Row | Compound | hERG current change (%, negative = inhibition) at 1uM [%]
45 | COc1ccc(/C=C/C(=O)C2C(=O)C=C(C)OC2=O)cc1O (stereo not shown) | 6.77
46 | S=C1CN=C(c2ccccc2)c2cc(Cl)ccc2N1 | 9
47 | Cc1ccc(SCC(=O)N2N=CCC2c2ccccc2)cc1 (stereo not shown) | 1.32
48 | COc1cccc2sc(Nc3nnc(-c4ccccc4Cl)o3)nc12 | 12.7
49 | Oc1c(Br)cc(/C=N/NC(=S)NCC2CCCO2)cc1Br (stereo not shown) | 13.5
50 | C=CCc1ccc(OCCCCNC2CCCC2)c(OC)c1.O=C(O)C(=O)O | -8.29
51 | CCOC(=O)CSc1nnc([C@H](Cc2ccccc2)NC(=O)OC(C)(C)C)o1 | -0.863
52 | Cc1ccc(C(=O)OCC(=O)Nc2ccc(Cl)cn2)s1 | 8.79
53 | CCn1c(Sc2ccc([N+](=O)[O-])cn2)nnc1-c1ccco1 | -23.8
54 | COc1ccc(N2C(=O)CNC2=S)cc1 | 8.58
55 | Cc1ccc(C)c(NS(=O)(=O)c2ccc(OCC(=O)NCc3ccccn3)cc2)c1 | 10
56 | Cc1ccc2c(CC(=O)NCCc3ccc(S(N)(=O)=O)cc3)coc2c1 | 7.43
57 | Cc1ccc(OCc2n[nH]c(=S)n2N)cc1C | 13.3
58 | CC1CC(C)CN(S(=O)(=O)CC23CCC(CC2=O)C3(C)C)C1 (stereo not shown) | 15.4
59 | C#CCOCCOCCOCCNc1nc(N2CCN(C(=O)C([C@@H](C)CC)n3cc(C(N)Cc4ccc(O)cc4)nn3)CC2)nc(N2CCN(C(=O)[C@H](CCC(=O)O)n3cc(C(N)CO)nn3)CC2)n1.Cl (stereo partly shown) | 10.5
60 | NNc1nnnc2c1sc1nc(N3CCOCC3)c3c(c12)CCCC3 | -0.882
61 | O=C(c1c[nH]c(C(=O)C(Cl)(Cl)Cl)c1)c1ccc(F)cc1F | 0.543
62 | CCOCCCNC(=O)c1oc2ccc(S(=O)(=O)N3CCOCC3)cc2c1C | 15.3
63 | CC1CN(C(=O)c2ccccc2C(=O)c2ncc[nH]2)CC(C)O1 (stereo not shown) | 10.1
64 | CCOc1ccccc1NC(=O)COC(=O)c1cccc(-c2ccc(OC(C)=O)cc2)c1 | 9.74
65 | CCCN1CCN(CCCNC(=O)CCCn2nc(C)c3sc4ccccc4c3c2=O)CC1 | 8.6
66 | Cc1cc(C)cc(C(=O)Nc2ccc(NC(=O)c3cccs3)cc2)c1 | -9.91

Row | Compound | hERG current change (%, negative = inhibition) at 1uM [%]
67 | Cc1ccc(S(=O)(=O)N2CCC(c3nc4c(nnn4Cc4ccccc4)c(=O)[nH]3)CC2)cc1 | 10.1
68 | CCN1CCN(CC(=O)Nc2cc(C)on2)CC1.O=C(O)C(=O)O | 6.23
69 | CC(=O)O[C@H]1C(=O)[C@@]2(C)[C@H]([C@H](OC(=O)c3ccccc3)[C@]3(O)C[C@H](OC(=O)[C@H](O)[C@@H](NC(=O)c4ccccc4)c4ccccc4)C(C)=C1C3(C)C)[C@]1(OC(C)=O)CO[C@@H]1C[C@@H]2O | 7.87
70 | COc1cc(NC(=O)CSc2nnnn2C2CCCC2)cc(OC)c1 | 10.6
71 | CCOC(=O)c1sc(=S)n2c1[nH]c(=O)c1ccc(C(=O)OC)cc12 | 6.91
72 | Cc1ccc(S(=O)(=O)N(CC(=O)NCCSc2ccccn2)c2cc(C)cc(C)c2)cc1 | -2.22
73 | O=C(O)c1ccc(CSc2nnc(-c3ccco3)o2)cc1 | 8.36
74 | CCSc1nnc(NC(=O)CSc2nnc(CNC(=O)c3cc(OC)c(OC)c(OC)c3)o2)s1 | 17.8
75 | c1ccc(-c2n[nH]nc2-c2ccccc2)cc1 | -1.43
76 | O=C(O)COc1ccc(S(=O)(=O)c2ccc(OCC(=O)O)cc2)cc1 | -8.01
77 | C=CCc1cc(C=O)cc(OC)c1OCc1c(Cl)cccc1Cl | -6.15
78 | O=C(Nc1ccccc1)C1=C[C@@H](c2ccc3c(c2)OCO3)C[C@@H](OCCCCO)O1 | 7.59
79 | S=c1[nH]nc(-c2ccncc2)n1/N=C/C(Cl)=C\c1ccccc1 | 17.3
80 | O=C(NC(=S)NNC(=O)c1cccs1)c1ccc(Br)o1 | 18.4
81 | CCc1cccc(NC(=S)N(CCCN2CCOCC2)C(C)c2cc3cccc(OC)c3o2)c1 (stereo not shown) | 10.5
82 | O=C(O)CC1S/C(=N/N=C/C=C/c2ccccc2[N+](=O)[O-])NC1=O (stereo not shown) | 13.2
83 | Cn1cc(SCC(=O)Nc2ccc3c(c2)OCO3)c2ccccc21 | 2.66
84 | COc1ccc(S(=O)(=O)N2CCOCC2)cc1NC(=O)CCc1nc2ccccc2c(=O)[nH]1 | 3.32
85 | COc1ccc(C(=O)Nc2cccnc2Cl)cc1OC | 16.8
